# Measurements published in PubChem BioAssay AID1963576 (National Center for Advancing Translational Sciences (NCATS), 2024).
# Screen size: about 46,000 compounds; about 60 (0.1%) were called active. Another 3% or so got no clear call; they are omitted. Calls come from the whole dose curve; as a rule, active = well fitted inhibition curve with a large enough effect; inconclusive = small, poorly fitted or top-dose-only effect; inactive = no such curve, though single readings can be large or run the other way. The list shows a part of the results.
# Test: Primary qHTS assay for Inhibitors of ovarian cancer metastasis using an organotypic tumor microenvironment (TME) model.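 For activity change, negative = inhibition: plate controls were DMSO wells for no effect and tomatine positive control wells for full effect.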 Note: nearly all actives have a fitted effect of over 65% in size.
# Conditions: SKOV3ip1-GFP adhesion/invasion on 3D omental model, fluorescence; series mostly up to 45.8 µM; activity change, negative = inhibition: at the top concentration
# How it was run: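 Primary human omental fibroblast/mesothelial 3D culture pre-formed 48 h. SKOV3ip1-GFP cells added with compounds (0.36-46 umol/L), incubated 2 h RT/16 h 37 C, fixed; GFP cells quantified at 488/509 nm.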
SMILES,"activity change, negative = inhibition",outcome
COC(=O)Nc1nc2ccc(S(=O)c3ccccc3)cc2[nH]1 (stereo not drawn),inactive: -21.9%,–
CCOc1ccc(NC(=O)c2oc3ccccc3c2NC(=O)Cc2cccc(C)c2)cc1,inactive: -5.14%,–
O=C(COc1ccc(Cl)cc1)NCCc1csc(-c2cccc(F)c2)n1,inactive: 3.95%,–
COc1ccc(NC(=O)c2c(C)oc3ccc(O)c(CN4CCOCC4)c23)cc1,inactive: -4.27%,–
Cc1cccc(NC(=O)CSc2nc(=O)n(Cc3cccnc3)c3c2CCC3)c1,inactive: 1.27%,–
CCCN1C(C(=O)c2ccccc2)=C(OC(=O)c2ccc(C)cc2)c2ccccc2S1(=O)=O,–,inactive
Cc1ccc(NC(=O)Cn2c(=O)ccc3cc(S(=O)(=O)N4CCC(C)CC4)ccc32)cc1C,inactive: 10.6%,–
Cc1cc(SCC(=O)NCc2ccc(F)cc2)nc(=O)[nH]1,–,inactive
CC(=O)c1ccc(NC(=O)CSc2nccn2Cc2ccc3c(c2)OCO3)cc1,inactive: 2.25%,–
Cn1ncc(C(=O)N2CCN(c3ccccc3F)CC2)c1C1CCN(C(=O)OC(C)(C)C)CC1,inactive: -3.01%,–
COc1cc(NC(=O)c2ncn(-c3ccccc3)n2)cc(OC)c1,–,inactive
CCOc1ccccc1-n1nnc(S(=O)(=O)c2ccc(C)cc2)c1N,–,inactive
COc1ccc(C2N3CC4(C)CN2CC(c2ccccc2)(C3)C4=O)cc1 (stereo not drawn),inactive: 6.33%,–
Cc1ccc(NC(=O)c2nc(-c3ccncc3)no2)c(Cl)c1,inactive: 0.763%,–
O=C(COCc1cc(-c2ccco2)on1)Nc1cccc(Cl)c1Cl,inactive: 1.58%,–
Cc1ccc(NC(=O)CSc2nc(-c3ccco3)cc(C(F)(F)F)n2)cc1C,inactive: -15.3%,–
COc1ccc(OC)c(CCNC(=O)c2cc3c(=O)n(C)c4ccccc4c3n2C)c1,inactive: 9.22%,–
O=C(c1cc(F)cc(F)c1)N1CCC(c2nc(-c3ccc(S(=O)(=O)N4CCCC4)cc3)no2)CC1,inactive: -5.35%,–
CCOc1ccc(NC(=O)CN2CCN(c3ccc(Cl)cc3)CC2)cc1,inactive: -12%,–
Cc1cc(=O)n2nc(N(C)CC(=O)NCc3ccc(Cl)cc3)sc2n1,–,inactive
CCc1cccc(NC(=O)CCN2C(=O)c3ccccc3Sc3ncccc32)c1,–,inactive
COc1ccc(CN(C(=O)Cc2coc3ccc(C)cc23)C2CCS(=O)(=O)C2)cc1 (stereo not drawn),inactive: -1.01%,–
CCOC(=O)c1cccc(NC(=O)C2CCCN(S(=O)(=O)c3cc(Br)cc4c3N(C(=O)CC)CC4)C2)c1 (stereo not drawn),–,inactive
O=C(Cn1c(=O)nc(-c2ccccc2)c2cc(Cl)ccc21)NCCc1ccccc1,inactive: 10.9%,–

SMILES,"activity change, negative = inhibition",outcome
COc1cc(Cl)c(C)cc1NC(=O)c1cc2c(s1)-c1c(C)cccc1OC2,inactive: -18.5%,–
COc1cccc(CNC(=O)CCS(=O)(=O)c2ccc3c(c2)CC(C)N3C(=O)C2CC2)c1 (stereo not drawn),inactive: -3.4%,–
Cc1cc2[nH]c(=O)c(=O)[nH]c2cc1S(=O)(=O)Nc1cccc(C(F)(F)F)c1,inactive: -11.1%,–
Cc1sc2ncn(CC(=O)N3CCN(c4ccc(F)cc4)CC3)c(=O)c2c1S(=O)(=O)N1CCN(c2ncccn2)CC1,inactive: -0.353%,–
CCC(=O)N1CCc2cc(S(=O)(=O)NC(CC(C)C)C(=O)NCc3ccc(C)cc3)ccc21 (stereo not drawn),inactive: -27.4%,–
CCc1nn(CC(=O)N2CCN(c3cccc(C)c3C)CC2)c(=O)c2cc3sccc3n12,inactive: -1.52%,–
Cc1ccc(OCC(=O)N(Cc2sccc2C)C2CCS(=O)(=O)C2)cc1 (stereo not drawn),inactive: -2.98%,–
CCCCN(C)C(=O)Cn1cnc2sc(C)c(S(=O)(=O)N3CCN(c4ccccc4OC)CC3)c2c1=O,inactive: 6.98%,–
CNC(=O)c1ccc(NC(=O)COc2ccc(-c3nn(C)c(=O)c4ccccc34)cc2)cc1,inactive: 8.88%,–
Cc1ccccc1NC(=O)Nc1cccs1,inactive: -7.47%,–
O=C1c2oc3ccccc3c(=O)c2C(c2cccc(Br)c2)N1c1ccccn1 (stereo not drawn),inactive: 14.7%,–
COc1ccc(-c2noc(CSc3nnc(-c4ccncc4)n3-c3ccc(C)c(C)c3)n2)cc1,inactive: 7.04%,–
Clc1ccc(Nc2nc(-c3ccccc3)c3cc(Cl)ccc3n2)cc1,–,inactive
CCOc1ccc(NC(=O)Cn2c(CCC(=O)O)ccc2-c2ccc(C)cc2)cc1,inactive: 3.55%,–
Cc1ccc2onc(CC(=O)N3CCN(c4cccc(C)c4C)CC3)c2c1,inactive: -0.797%,–
Cc1cc(=O)n2nc(N3CCC(C(=O)NCc4ccc(Cl)cc4)CC3)sc2n1,–,inactive
CCOC(=O)c1[nH]c2ccccc2c1NC(=O)c1cc(OCC)c(OCC)c(OCC)c1,–,inactive
Cc1ccc(C)c(CN2C(=O)c3ccccc3Sc3ccc(C(=O)NCc4ccc5c(c4)OCO5)cc32)c1,inactive: -34.4%,–
COc1ccc(Cn2c(CO)cnc2SCC(=O)NCc2ccco2)cc1,inactive: -18.3%,–
Cc1ccccc1C(=O)Nc1cccc(C(=O)OCc2cc(=O)n3nc(C4CC4)sc3n2)c1,inactive: 23.2%,–
COc1cc(NC(=O)CC(C)S(=O)(=O)c2cc3c4c(c2)CCN4C(=O)CC3)cc(OC)c1 (stereo not drawn),–,inactive
CC(=O)c1cccc(NC(=O)c2ccc3nc(C(C)C)oc3c2)c1,–,inactive
COc1ccc(-c2nc(Cn3c(SCc4ccc(F)cc4)nc4cccnc43)c(C)o2)cc1,inactive: -8.54%,–
Cc1ccc([N+](=O)[O-])cc1S(=O)(=O)N1CCn2cccc2C1c1ccc(F)c(F)c1 (stereo not drawn),inactive: -20.2%,–
